The record followed here is PubChem BioAssay AID1745853 (National Center for Advancing Translational Sciences (NCATS), 2022).

Test in all cases: Primary Screen for Target Class Profiling of Small Molecule Inhibitors of Methyltransferases
In experiment [1] the target is Glycine N-methyltransferase (Homo sapiens) (UniProt Q14749). Particulars: purified enzyme, MTase-Glo SAH luminescence; measured here: GNMT inhibition; at 40 µM; stronger effect = lower value. The procedure, abridged:
(§1)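 Each enzyme was reacted with SAM and its substrate, with compounds tested once at 40 uM; SAH formed was read by MTase-Glo luminescence.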

Experiment [2] deals with Guanidinoacetate N-methyltransferase (Homo sapiens) (UniProt Q14353). The conditions noted are these: purified enzyme, MTase-Glo SAH luminescence; measured here: GAMT inhibition; at 40 µM; stronger effect = lower value. Put shortly:
as §1

Experiment [3] has as its target Histamine N-methyltransferase (Homo sapiens) (UniProt P50135). The conditions noted are these: purified enzyme, MTase-Glo SAH luminescence; measured here: HNMT inhibition; at 40 µM; stronger effect = lower value. The procedure, abridged:
as §1

Experiment [4] deals with Nicotinamide N-methyltransferase (Homo sapiens) (UniProt P40261). The conditions noted are these: purified enzyme, MTase-Glo SAH luminescence; measured here: NNMT inhibition; at 40 µM; stronger effect = lower value. Put shortly: as §1
The target in experiment [5] is Phenylethanolamine N-methyltransferase (Homo sapiens) (UniProt P11086). Particulars: purified enzyme, MTase-Glo SAH luminescence; measured here: PNMT inhibition; at 40 µM; stronger effect = lower value. Put shortly: as §1

Molecules are shown by their SMILES. Some of the results follow. Shown are side measurements of this screen, not its main read-out; they come without a call.
% is set by controls: 0 for no effect and ±100 for the full control effect.

As for `CCCn1c(=O)c2ccc(C(=O)NC(C)C)cc2n2c(=O)n(CC(=O)N(C)c3ccc(F)cc3)nc12`, the activity change, negative = inhibition in experiment [1] was -0.009%; in experiment [2], -0.526%; in experiment [3], -1.79%; in experiment [4], -9.92%; in experiment [5], -7.03%.
As to `Cc1c(CN2CC[C@H]3CC[C@@H](C2)N3)c(=O)n(-c2ccccc2)n1C`, the activity change, negative = inhibition is -0.901% in experiment [1]; -0.354% in experiment [2]; -3.94% in experiment [3]; 0.822% in experiment [4]; 0.844% in experiment [5].
The like results for `COc1cccc(CNC(=O)Cn2ccc3cc(S(=O)(=O)N4CCCC4)ccc32)c1` were, in that order, -0.698%, 1.71%, -1.57%, -15.6% and -2.55%.
On to `Cc1ccc(NC(=O)COc2ccc(-c3nnc4n3CCCC4)cc2)cc1C`, for which the activity change, negative = inhibition in experiment [1] was -4.83%; in experiment [2], -5.76%; in experiment [3], -5.39%; in experiment [4], -13.3%; in experiment [5] it was -5.65%.
The matching figures for `O=C(NCCc1ccc(Cl)cc1)C1CN(C2CCCC2)C(=O)N1` (stereo not given): -7.92%, -7.96%, -3.92%, -24.2% and -8.7%.
`CCCn1c(=O)c2ccc(C(=O)NC3CCCC3)cc2n2c(=O)n(CC(=O)Nc3ccccc3C)nc12`: the activity change, negative = inhibition amounted to 3.73% in experiment [1]; 0% in experiment [2]; 6.46% in experiment [3]; 5.73% in experiment [4]; 3.76% in experiment [5].
As to `CSc1ccc(CCNC(=O)c2cc3n(n2)CCCN(Cc2ccc(C)cc2)C3=O)cc1`, the activity change, negative = inhibition was -11.2% in experiment [1]; 3.15% in experiment [2]; -6.69% in experiment [3]; -9.16% in experiment [4]; -1.12% in experiment [5].
`CCOC(=O)c1cc2n(n1)CC(C)(C(=O)NCc1ccc(C)cc1)N(Cc1ccccc1Cl)C2=O` (stereo not given): the activity change, negative = inhibition in experiment [1] was found to be 7.61%; in experiment [2], 2.45%; in experiment [3], 12%; in experiment [4], 3.91%; in experiment [5], 4%.
The matching figures for `COCCN1CCC2(CCC1=O)CN(c1ccc(C#N)cn1)CCN2C` (stereo not given): -6.28%, -3.67%, -2.08%, -9.42% and 10%.
The matching figures for `CC1=CC(=O)CC2C1(O)CCC(C)C21CC(c2ccoc2)OC1=O` (stereo not given): 0%, -3.96%, 6.93%, -19.3% and -13.5%.
Consider `COc1ccc(N2C(=O)c3cc(-c4cccs4)nn3CC2(C)C(=O)NC2CCCCCC2)cc1` (stereo not given), for which the activity change, negative = inhibition in experiment [1] worked out at 1.77%; in experiment [2], 0%; in experiment [3], 8.6%; in experiment [4] it was 7.89%; in experiment [5], 3.82%.
The like results for `Cn1c2c(c3ccccc31)C(C(=O)NCc1ccccc1)N(Cc1ccccc1Cl)C(=O)CS2` (stereo not given) were, in that order, 13.6%, 1.65%, 8.43%, 6.98% and 2.49%.
The like results for `CC1=NOC2(CCN(CC3CC3)CC2)C1` were, in that order, 0.327%, 1.67%, 3.47%, -4.92% and 14.8%.
The matching figures for `CC(=O)O[C@H]1[C@H](OC(=O)C(C)C)[C@]2(C)OC3(CC[C@]2(C)[C@H]2CCC[C@]4(CO4)[C@]12C)COC(=O)C3` (stereo not given in full): 0%, -5.3%, 0.453%, -19% and 0.705%.
In the case of `CCOCCCNC(=O)c1ccc2c(=O)nc3c(-c4cccc(F)c4)n[nH]n3c2c1`, the activity change, negative = inhibition in experiment [1] was -4.8%; in experiment [2], -3.08%; in experiment [3], 0.438%; in experiment [4], -0.485%; in experiment [5], -3.49%.
Regarding `CC(C)S(=O)(=O)Nc1ccc(F)c(C(=O)c2c[nH]c3ncc(-c4cccnc4)cc23)c1F`, the activity change, negative = inhibition is -17.8% in experiment [1]; -4.07% in experiment [2]; 1.43% in experiment [3]; -32% in experiment [4]; -14.6% in experiment [5].
The like results for `O=[S+]([O-])(Nc1cccnc1)c1ccc2c(c1)OCCN(Cc1cncnc1)C2` were, in that order, -3.07%, 0.495%, 1.47%, -0.11% and -0.079%.
The matching figures for `O=c1c2ccccc2n2c(-c3ccc(F)c(F)c3)nnc2n1CCc1ccccc1`: -4.33%, 2.46%, -2.12%, -4.23% and -7.62%.
For the molecule `Cc1cc2c(cc3n2CC(C)(C(=O)NC2CCCCCC2)N(Cc2ccccc2)C3=O)o1` (stereo not given), the activity change, negative = inhibition is -3.35% in experiment [1]; 2.87% in experiment [2]; 1.72% in experiment [3]; -3.64% in experiment [4]; -1.93% in experiment [5].
The matching figures for `Cn1c(=O)c2ccc(C(=O)NC3CCCCC3)cc2n2c(=O)n(Cc3ccc(F)cc3)nc12`: 3.64%, 0%, 9.9%, 0.521% and 1.35%.
In the case of `COC(=O)c1ccc2nc(CO[C@H]3CN(Cc4cccc(C#N)c4)C[C@H]3F)[nH]c2c1`, the activity change, negative = inhibition is -8.75% in experiment [1]; -5.64% in experiment [2]; -25.5% in experiment [3]; -13.2% in experiment [4]; -6.26% in experiment [5].
The like results for `O=C(NCc1nnc2cc(-c3nc(C4CC4)no3)ccn12)c1nccc2ccccc12` were, in that order, -4.5%, -6.14%, -2.99%, -8.14% and -0.912%.
The matching figures for `O=C(CSc1nnc2n(Cc3ccc(F)cc3)c(=O)c3ccccc3n12)Nc1ccc(Cl)cc1`: 3.31%, 0.769%, 8.72%, 1.62% and 2.44%.
The matching figures for `Cn1cnc(S(=O)(=O)N2CCCN(C(=O)c3nccn3C)CCNC(=O)CC2c2ccccc2)c1` (stereo not given): -1.39%, 2.23%, 1.56%, -1.28% and 2.08%.
In the case of `Cn1c(=O)c2ccc(C(=O)NC3CCCCC3)cc2n2c(SCC(=O)Nc3ccccc3F)nnc12`, the activity change, negative = inhibition is -3.48% in experiment [1]; 0% in experiment [2]; -2.5% in experiment [3]; -1.5% in experiment [4]; -0.573% in experiment [5].
For the molecule `COc1ccc(-c2cc3n(n2)CC(C)(C(=O)NCc2ccccc2OC)N(CCc2cccs2)C3=O)cc1` (stereo not given), the activity change, negative = inhibition in experiment [1] was 0.558%; in experiment [2] it was 5.51%; in experiment [3], -3.88%; in experiment [4], 3.29%; in experiment [5] it was -2.42%.
Regarding `CCOc1ccc(CNC(=O)CCn2ccc3cc(S(=O)(=O)N4CCCCC4)ccc32)cc1`, the activity change, negative = inhibition in experiment [1] worked out at 6.51%; in experiment [2] it was 0.735%; in experiment [3] it was 3.61%; in experiment [4] it was 2.36%; in experiment [5], 2.3%.
Regarding `NC(=O)COc1ccc(C(=O)N[C@@H]2CN(Cc3ccccn3)CCC[C@H]2O)cc1`, the activity change, negative = inhibition was -9.61% in experiment [1]; -7.06% in experiment [2]; -14.7% in experiment [3]; -10.5% in experiment [4]; -9.22% in experiment [5].
The like results for `O=C(Cn1cc(C(F)(F)F)ccc1=O)N1CCC2(CCCNC2=O)C1` (stereo not given) were, in that order, -0.48%, -0.232%, 1.64%, 1.18% and 2.07%.
